The labels stand for the following.
B1: CPEB3 Ribozyme (parent)
chain: UAACAGGGGGCCACAGCAGAAGCGUUCACGUCGCAGCCCCUGUCAGAUUCUGGUGAAUCUGCGAAUUCUGCUGUAUAUCUC

The source gives no read counts; variants with many changes may rest on few reads.

Variants of B1 are the subject of this data set. Briefly: self-cleavage, relative activity (ratio to wild type); higher = more cleavage; in vitro, sequencing. The method in brief: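 CPEB3 self-cleaving ribozyme mutant libraries were made by rounds of error-prone PCR, barcoded, and transcribed in vitro with T7 RNA polymerase for 5 hours at 37°C. Cleavage occurred during transcription and a 15 min DNase I step before EDTA stop. RNAs were reverse transcribed with template switching and Illumina-sequenced, with DNA sequencing mapping barcodes to variants. Relative activity is the variant's cleaved/total read fraction divided by wild type's (minimum 5 reads), averaged across three batches.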
As to UAACAGGGGGCCACAGCGGAAGCAUUCACGUCGCAGCCCCUGUCAGAUUCUGGUGAAUCUGCGAUUUCUGCUGUAUAUCAC, the self-cleavage came out at 0.19.
Next, UAACAGGGGGCCACAGCGUAAGCGUUCACGUCGCAGCCCCUGUCAGAUUCUGGUGAAUCUGCGAAUUCUGUUGUAUAUCUC: 0.14; UAACAGGGGGCCACAGCGGAAGCGUUCACGUCGCAGCCCUUGUCAGAUUCUGGUGCAUCCGCGUAUUCUGCUGUAUAUCUC: 0.09; UAACAGGGGGCCACAGCGGAAGCGUUCACGUCACAGCCCCUGACAGAUUCUGGUGAAUCUGCGAAUUCUGCUGAAUAUCUC: 0.07.
In the case of UAACAGGGGGCCACAGCGGAAGCGUUCACGUCGCAGCCCAUGUCAGAUUCUGGUGAAGUUGCGGAUUCUGCUGUUUAUCUC, the self-cleavage amounted to 0.11.
Next, UAACAGGGGGCCACAGCGGAAGCGUUCACGUCGCAGCCCCUUUCAGAUUCUGGUGAGUCUGCGAGUUCUGCUGUAUAUCUC: 0.09.
Under UAACAGGGGGCCACAGCGGAAGCGUUCACGUCGCAGCCCCUGUCAGAUUCUGGUGAAUCUGCGAAUUCUGGCGUAUAUCAC stands 0.37; under UAACAGGGGGCCACAGCGGAAGCGUUCACUUCGCAGCCCCUGUCAGAUUCUGAUGAAUCCGCGAACUCUGCUGUAUAUCUC, 0.17; under UAACAGGGGGCCACAGCGGAAGCGUUCACGUCGCAGCCUCUGUCGGAUUCUGGUGAAUCAGCGGAUUCUGCUGUAUACCUC, 0.15.
Next, UAACAGGGGGCCACAGCGGAAGCGUUCACAUCGCAGCCCGUACCAGAUUCUGGUGAAUCUGCGAAUUCUGCUGUAUAUCUC: 0.18; UAACAGGGGGCCACAGCGGAAGCGUUCACGUCGCAGCCCCUUUCAGAUUCUGGUGAAUCUGCGAAUUCUGCUGUUUAUCUC: 0.27; UAACAGGGGGCCACAGCGCAAGCGUUCACGUCGCAGCCCCUGUCAGAUUCCGGUGAAUCUGCGAAUUCUGCUGUAUAUCUC: 0.1.
As to UAACAGGGGGCCACAGCGGAAGCGUUCACGUCGCAGCCCUUGUCAGAUUCCGGUGAAUCUGCGAAUUCUGCGGUAUAUCUC, the self-cleavage was 0.2.
Under UAACAGGGGGCCACAGCGGAAGCGUUCACGUCUCCGCCCCUGUCAGAUUCUGGUGAAUCUGCGAGUUCUGCUGUAUAUCUC stands 0.06; under UAACAGGGGGCCACAGCGGAAGCGUUCACUUCGCCGCCCCCGUCAGAUUCUGGGGAAUCUGCGAAUUCUGCCGUAUAUCUC, 0.09.
Regarding UAACAGGGGGCCACAGCGGAAACGUUCACGUCGCAGCCCCUGUCAGAUUCAGGUGAAUCUGCGAACUCUGCUGUAUAUCUC, the self-cleavage is 0.08.
For the variant UAACAGGGGGCCACAGCGGAAGCUUUCACGUCGCGGCCCCUGUCAGAUUCUGGUGAAUCUGCGAAUUCUGCCGUAUAUCCC, the self-cleavage worked out at 0.13.
Under UAACAGGGGGCCACAGCGGAAGCGUUCACGUCGCAGCCCCUGUCAGAUUCUGGUGAAUUCGCGAAUUCUGCUGAAUAUCUC stands 0.22.
Next, UAACAGGGGGCCACAGCGGAAGCGUUCACGUCCCACCCCCUGUCAGAUUCUGGUGAAUCUGCGAAUUCUGCUGUAUAUCUC: 0.31; UAACAGGGGGCCACAGCGGAAGCGUUCACGUCGCAUCCCCUGUCAGAUUCUGGUGAAUCUCCGAGUUCUGCUGUAUAUCUC: 0.06; UAACAGGGGGCCACAGCGCAAGCGUUCACGUCGCAGCCCCUGUCAGAUUCUGGUGGAUCUGCGCUUUCAGCUGUAUAUCUC: 0.07.
Take UAACAGGGGGCCACAGCGGAAGCGUUCACGUCGCAGCCCCUGUCAGAUUAUGGUGAGUCUGCGAAUUCUGCUGUAUAUCUC: the self-cleavage is 0.32.
Under UAACAGGGGGCCACAGCGUAAGCGUUCACGUCGCAGCCCCUGUCAGAUUCUGGUGAAUCUGCGAAUUCUGCAGUAUAUCCC stands 0.14; under UAACAGGGGGCCACAGCGGAAGCGUUCACGUCCCAACCCCUGUCAGAUUCUGGUGAAUCUGCGAAUUCUGCGGUAUAUCAC, 0.15; under UAACAGGGGGCCACAGCGGAAGCGAUCACGUCGCAGCCCUUGUCAGAUUCUGGUGAAUCUGCGAAUUCUGCUGUACAUCUC, 0.23.
Next, UAACAGGGGGCCACAGCGGAAGCGUUCACGUCGCAACCCCUGUCAGAUUCUGGUGAAUCUGCGGAUACUGCUGUAUAUCUC: 0.18; UAACAGGGGGCCACAGCGAAAGCGUUCACGUCGCAGCCCCCGUCAGAUUCUGGUGUAUCUGCGAAUUCUGCUGUAUAUCUC: 0.1; UAACAGGGGGCCACAGCGGAAGCCUUCACGUCGCAGCCCCUGUCAGAUUCAGGUGAAUCUGCGAAUUCUGCUGUAUAUCUC: 0.21.
For the variant UAACAGGGGGCCACAGCGGAAGCGUUCACGUCGCAGCCCCUGUCAGAUUCUGGUCAAUCUGCGAAUUCUGCCGUAUACCUC, the self-cleavage was 0.28.
Under UAACAGGGGGCCACAGCGGAAGCGUUCACGUCGCAGCCGCUGUCAGAUUCUGGUGAAUCUGCGGAUUCUGCUGUAUAUCUC stands 0.07; under UAACAGGGGGCCACAGCGGAAGCGUUCACGUCUCAGCCCCUGUCUGAUUCUGGUGAAUCUGCGUAUUUUGCUGUAUAUCUC, 0.12.
Next, UAACAGGGGGCCACAGCGGAAGCGUUCACAUCGCAGCCCCUGUCCGAUUCUGGUGAAUCUGCGAAUUCUGCUGUAUAUCUC: 0.17; UAACAGGGGGCCACAGCGGAAGCGUUCACGUCGCAGCCCCUGUCACAUUCUGGUGGAUCUGCGAACUCUGCUGUAUAUCUC: 0.21.
Under UAACAGGGGGCCACAGCGGAAGCGUUCACGUCGCAGCCCCUGUCAGAUUCUGGUGAAUCUGUGAAUUCUGCAGUAUAUCUC stands 0.16.

The values above are taken from the RNAGym collection of RNA variant scans (doi:10.1093/nar/gkz1192).
